# Assay results taken from PubChem BioAssay AID894 (National Center for Advancing Translational Sciences (NCATS), 2007).
# In all, about 150,000 compounds went through this assay and about 6,500 (4.3%) were called active. The inconclusive results got no clear call from the source; some entries with a clear call stand among them for comparison. Calls follow the shape of the dose curve; as a rule, active = well fitted inhibition curve with a large enough effect (not every such curve was filed as active); inconclusive = small, poorly fitted or top-dose-only effect, or another doubt; inactive = no such curve, though single readings can be large or run the other way. Potencies of inconclusive entries are left out as doubtful fits.
# Biological target: 15-hydroxyprostaglandin dehydrogenase [NAD(+)] (Homo sapiens) (UniProt P15428)
# UniProt P15428, sequence (P15428 whole entry, looked up): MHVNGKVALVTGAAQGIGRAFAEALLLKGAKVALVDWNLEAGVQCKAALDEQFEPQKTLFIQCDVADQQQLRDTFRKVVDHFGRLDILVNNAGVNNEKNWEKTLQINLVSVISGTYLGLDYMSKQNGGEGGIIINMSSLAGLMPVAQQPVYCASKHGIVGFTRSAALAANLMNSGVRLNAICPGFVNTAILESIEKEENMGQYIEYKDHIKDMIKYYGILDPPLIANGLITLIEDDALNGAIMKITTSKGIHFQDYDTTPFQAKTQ
# Test: qHTS Assay for Inhibitors of HPGD (15-Hydroxyprostaglandin Dehydrogenase)
# Conditions: purified HPGD, NADH fluorescence kinetic, PGE2 substrate; activity change, negative = inhibition: active compounds read low
# How it was run: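 NADH formation kinetics: reaction with 30 uM PGE2 and 1 mM NAD+ (final), 20 nM enzyme, Tris-HCl pH 8 with Tween 20, after 15 min compound preincubation at room temperature. Fluorescence change, last versus first of five reads.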
# % is scaled to controls: 0 for no effect and ±100 for the full control effect; potency is read from the fitted curve at half-maximal effect; tags tell the direction and shape of the fitted curve.
Structure (SMILES),"activity change, negative = inhibition",Potency
O=C1S/C(=C\C=C\c2ccco2)C(=O)N1c1ccc(O)cc1,inactive: -13.3%,
CC(O)c1nc2ccccc2n1C/C=C/c1ccccc1 (stereo not given),inactive: -6.53%,
COc1cc2c(cc1NC(=S)Nc1cccc(C)c1)oc1ccccc12,,"inconclusive [inhibitor, partial curve]"
COCCCNc1oc(COc2ccc(Cl)cc2Cl)nc1C#N,,active: 28.2 µM
COc1cccc2sc(Nc3nc(C)c(C(C)=O)s3)nc12,,"inconclusive [inhibitor, partial curve]"
Cc1cc(C(=O)NC2CCCCC2)c(C)n1-c1ccc(F)cc1,,active: 4.47 µM
COc1ccc(-c2c(C)sc(NC(=O)c3ccnn3C)c2C#N)cc1,,"inconclusive [inhibitor, partial curve]"
COc1cc2[nH]c(=O)n(Cc3ccc(C(=O)NCCCN4CCN(C)CC4)cc3)c(=O)c2cc1OC,,"inconclusive [inhibitor, partial curve]"
CC(=O)NCCC(=O)Nc1nc(-c2cccs2)c(-c2cccs2)s1,,"inconclusive [inhibitor, partial curve]"
COc1ccc2c(c1)c(CC(=O)O)c(C)n2Cc1ccc(F)cc1,inactive: -17.9%,
COC(=O)c1ccc(CSc2nnc(Nc3ccc(OC)cc3)s2)o1,inactive: -9.5%,
Cc1cc(SCC(=O)N/N=C/c2ccc(O)cc2O)c(C)cc1Br,,active: 20 µM
CCOC(=O)c1sc(NC(=O)C2CCCO2)c(C(=O)OCC)c1C (stereo not given),,"inconclusive [inhibitor, partial curve]"
O=C(Nc1ccccc1N1CCCCC1)c1ccco1,inactive: -2.55%,
COCCCNC(=O)c1c(N)n(-c2ccc(S(N)(=O)=O)cc2)c2nc3ccccc3nc12,,"inconclusive [inhibitor, full curve]"
O=S(=O)(Nc1ccc(N2CCCCC2)cc1)c1ccccc1,inactive: -19.8%,
O=C(COc1cccc2ccccc12)NNC(=O)Nc1ccccc1,,"inconclusive [inhibitor, single point]"
COc1cccc(-c2cc(C(F)(F)F)nc(-n3cc(Cl)cn3)n2)c1,,"inconclusive [inhibitor, partial curve]"
O=C(NN=C1C2CC3CC(C2)CC1C3)c1ccncc1,inactive: 1.53%,
CCCOC(=O)c1ccc(NS(=O)(=O)c2cccs2)cc1,,active: 17.8 µM
Cc1cc(C(=O)CSc2nc3ccccc3[nH]2)c(C)n1CC1CCCO1 (stereo not given),,active: 15.8 µM
Cc1ccc(-c2nn(-c3ccccc3)cc2/C=C(\C#N)C(=O)NCc2ccccc2)cc1,,"inconclusive [inhibitor, single point]"
CC(C)Cn1c2nc3ccccc3nc2c2c(=O)n(CCN3CCOCC3)cnc21,,"inconclusive [inhibitor, partial curve]"

Structure (SMILES),"activity change, negative = inhibition",Potency
COc1ccc(CC(=O)Nc2ccc(-c3cn4cccc(C)c4n3)cc2)cc1OC,,"inconclusive [inhibitor, partial curve]"
COc1ccc([N+](=O)[O-])cc1NC(=O)c1ccc(CN(c2ccccc2)S(C)(=O)=O)cc1,inactive: -22.1%,
O=C(c1ccc(Cl)cc1)N1CCC(O)(CSc2ccccc2)CC1,inactive: -2.98%,
c1cc(-c2nnc3n2CCCCC3)ccn1,inactive: -6.28%,
O=C(Nc1ccccc1Cl)N1CCN(c2ccccn2)CC1,,"inconclusive [inhibitor, partial curve]"
C=CCOc1c2ccc(C(=O)NCc3ccc(OC)cc3)cc2nn1C,,"inconclusive [inhibitor, partial curve]"
Nc1c2c(nc3ccccc13)N(C1CCCCC1)CC2,,"inconclusive [inhibitor, partial curve]"
COc1cc2c(cc1OC)C(COc1ccc3c(C)cc(=O)oc3c1)N(C(=O)c1ccco1)CC2 (stereo not given),,"inconclusive [inhibitor, partial curve]"
O=C(O)c1cn(-c2ccccc2)nc1-c1ccncc1,,"inconclusive [inhibitor, single point]"
CCCNC(=O)c1ccc2nc(-c3ccccc3)c(-c3ccccc3)nc2c1,,"inconclusive [inhibitor, partial curve]"
COC(=O)C1=C(C(=O)OC)[C@@H]2N(Cc3ccccc3)c3ccccc3[C@@]23C[C@@H](C(=O)OC)N(S(=O)(=O)c2ccc(C)cc2)C3=N1,inactive: -7.37%,
Cc1ccc2cc3c(N)[nH]nc3nc2c1,inactive: -28.1%,
C=CCNC(=O)c1sc(=S)n(-c2ccc(C(=O)OCC)cc2)c1N,,active: 15.8 µM
COc1ccccc1-n1cnc2cc(NS(=O)(=O)c3ccc(Br)cc3)ccc21,,"inconclusive [inhibitor, single point]"
CCCc1cc(=O)[nH]c(SCc2nc3ccccc3s2)n1,,"inconclusive [inhibitor, partial curve]"
C[N+]1(CCC[N+]2(C)C[C@H]3[C@H](C2)[C@H]2C=C[C@@H]3CC2)CCOCC1 (stereo not given in full),,active: 3.16 µM
COc1ccc(-c2ccnc(SCC(=O)N3CCOCC3)n2)cc1,,"inconclusive [inhibitor, partial curve]"
Cc1cc2cc(CNC(=O)NC3CCCCC3)ccc2n1C,,active: 28.2 µM
CCCN(CCC)S(=O)(=O)c1ccc(C(=O)Nc2nc3c(s2)CCc2ccccc2-3)cc1,,"inconclusive [inhibitor, partial curve]"
COc1cccc(-c2nnc(-c3ccc(C(F)(F)F)cc3)o2)c1,,"inconclusive [inhibitor, single point]"
O=C(Nc1cc(S(=O)(=O)N2CCCCC2)ccc1Cl)c1ccccc1NS(=O)(=O)c1ccc(F)cc1,,"inconclusive [inhibitor, partial curve]"
Cc1ccc(C(=O)N/C(=C\c2ccc(-c3ccc(Br)cc3)o2)C(=O)NC2CCS(=O)(=O)C2)cc1 (stereo not given),,"inconclusive [inhibitor, partial curve]"
